Measured values taken from US10299477B2 (priority 2015, dated 2019).

Tests used:
Format in all cases: in vivo
Botrytis cinerea = assay: Test Example B: Gray mold on tomato; details: for Test B control value: Gray mold on tomato; for Test B control value (gray mold on tomato): 250 ppm spray, preventive, control value class; for Test B (control value class, gray mold on tomato): in vivo
Source text: [Test Example B] Gray Mold on Tomato
Seeds of a test plant (tomato variety: Oogata Fukuju) were planted followed by cultivating until three to five first leaves (true leaves) appeared.

Alternaia brassicicola = assay: Test Example C: Alternaria sooty spot on cabbage; details: for Test C control value: Alternaria sooty spot on cabbage; for Test C control value (Alternaria sooty spot on cabbage): 250 ppm spray, preventive, control value class; for Test C (control value class, Alternaria sooty spot on cabbage): in vivo
Source text: [Test Example C] Alternaria Sooty Spot on Cabbage
Seeds of a test plant (cabbage variety: Shikidori) were planted followed by cultivating until the cotyledons extended.

[1] = system: Blumeria graminis f sp. hordei; assay: Test Example D: Powdery mildew on barley; details: for Test D control value: Powdery mildew on barley; for Test D control value (powdery mildew on barley): 250 ppm spray, preventive, control value class; for Test D (control value class, powdery mildew on barley): in vivo
Source text: [Test Example D] Powdery Mildew on Barley
After the sprayed dilutions were dried, conidia of Blumeria graminis f sp. hordei were inoculated to the plants by shaking off.

Puccinia recondita = assay: Test Example E: Brown rust on wheat; details: for Test E control value: Brown rust on wheat; for Test E control value (brown rust on wheat): 250 ppm spray, preventive, control value class; for Test E (control value class, brown rust on wheat): in vivo
Source text: [Test Example E] Brown Rust on Wheat

Plasmopara viticola = assay: Test Example G: Downy mildew on vine; details: for Test G control value: Downy mildew on vine, 250 ppm sprayed before inoculation; for Test G control value / Test G control value (downy mildew on vine): 7-10 days after inoculation; for Test G control value (downy mildew on vine): 250 ppm spray (2.5 ml/pot), preventive, control value class; for Test G (control value class, downy mildew on vine): 250 ppm, sprayed 2.5 ml/pot before inoculation, evaluated 7-10 days after inoculation
Source text: [Test Example G] Downy Mildew on Vine
Seeds of a test plant (grape variety: Neomuscat) were planted followed by cultivating until three to four first leaves appeared. […] After the sprayed dilutions were dried, a zoosporangia suspension (1-2×10^4 zoosporangia/ml) of Plasmopara viticola was inoculated to the plants by spraying.

| SMILES | Test B control value (Botrytis cinerea) | Test C control value (Alternaia brassicicola) | Test D control value [1] | Test E control value (Puccinia recondita) | Test G control value (Plasmopara viticola) | Test B control value (gray mold on tomato) (Botrytis cinerea) | Test C control value (Alternaria sooty spot on cabbage) (Alternaia brassicicola) | Test D control value (powdery mildew on barley) [1] | Test E control value (brown rust on wheat) (Puccinia recondita) | Test G control value (downy mildew on vine) (Plasmopara viticola) | further results |
| --- | --- | --- | --- | --- | --- | --- | --- | --- | --- | --- | --- |
| Cn1c(-c2c(F)cccc2F)c(-c2cccc(F)c2)cc(Br)c1=O [Compound 170] | H (H shows more than 50% of control values) | H (H shows more than 50% of control values) | H (H shows more than 50% of control values) | H (H shows more than 50% of control values) | H (H shows more than 50% of control values) | – | – | – | – | – | – |
| CCN1C(=O)CCC(c2cc(OC)cc(OC)c2)=C1c1c(F)cc(Br)cc1F [Compound 186] | – | – | – | – | – | H (H shows more than 50% of control values) | H (H shows more than 50% of control values) | L (L shows 50% or less of control values) | H (H shows more than 50% of control values) | H (H shows more than 50% of control values) | – |
| CCn1c(-c2c(F)cccc2Br)c(-c2cc(OC)cc(OC)c2)ccc1=O [Compound 175] | H (H shows more than 50% of control values) | L (L shows 50% or less of control values) | L (L shows 50% or less of control values) | L (L shows 50% or less of control values) | L (L shows 50% or less of control values) | – | – | – | – | – | – |
| CCn1c(-c2c(F)cc(OC)cc2F)c(-c2ccccc2F)cc(C)c1=O [Compound 569] | – | – | – | – | – | – | – | – | – | – | Test B (control value class, gray mold on tomato) (Botrytis cinerea): H (H shows more than 50% of control values); Test C (control value class, Alternaria sooty spot on cabbage) (Alternaia brassicicola): H (H shows more than 50% of control values); Test D (control value class, powdery mildew on barley) [1]: H (H shows more than 50% of control values); Test E (control value class, brown rust on wheat) (Puccinia recondita): H (H shows more than 50% of control values); Test G (control value class, downy mildew on vine) (Plasmopara viticola): H (H shows more than 50% of control values) |
| CCOC(=O)COc1ccc(Cl)c(-c2ccc(=O)n(CC)c2-c2c(F)cccc2F)c1 [Compound 307] | – | – | – | – | – | H (H shows more than 50% of control values) | L (L shows 50% or less of control values) | L (L shows 50% or less of control values) | H (H shows more than 50% of control values) | L (L shows 50% or less of control values) | – |
| COc1cc(F)c(-c2c(-c3ccccc3Cl)cc(C)c(=O)n2C)c(F)c1 [Compound 733] | – | – | – | – | – | – | – | – | – | – | Test B (control value class, gray mold on tomato) (Botrytis cinerea): H (H shows more than 50% of control values); Test C (control value class, Alternaria sooty spot on cabbage) (Alternaia brassicicola): H (H shows more than 50% of control values); Test D (control value class, powdery mildew on barley) [1]: H (H shows more than 50% of control values); Test E (control value class, brown rust on wheat) (Puccinia recondita): H (H shows more than 50% of control values); Test G (control value class, downy mildew on vine) (Plasmopara viticola): H (H shows more than 50% of control values) |
| Cc1ccc(C2=C(c3c(F)cccc3F)N(C)C(=O)CC2)cc1 [Compound 268] | – | – | – | – | – | L (L shows 50% or less of control values) | L (L shows 50% or less of control values) | H (H shows more than 50% of control values) | H (H shows more than 50% of control values) | H (H shows more than 50% of control values) | – |
| CN1C(=O)CCC(c2ccccc2)=C1c1ncc(Cl)cc1Cl [Compound 1] | H (H shows more than 50% of control values) | H (H shows more than 50% of control values) | H (H shows more than 50% of control values) | H (H shows more than 50% of control values) | L (L shows 50% or less of control values) | – | – | – | – | – | – |
